Measurements taken from a collection of fitness landscapes (doi:10.1016/j.celrep.2020.107928).
In all, about 81,000 sequences were measured (“one-hybrid fitness for binding parS DNA”: median about -0.17, highest 2% from about 0.51 on). The list shows a part of the results.

B1: Caulobacter ParB omega fusion; a variant is named by its letters at X, in order, B8GW30 (parent)
chain: MESVVVGEPGMSEGRRGLGRGLSALLGEVDAAPAQAPGEQLGGSREAPIEILQRNPDQPRRTFREEDLEDLSNSIREKGVLQPILVRPSPDTAGEYQIVAGERAWRAAQRAGLKTVPIMVRELDDLAVLEIGIIENVQRADLNVLEEALSYKVLMEKFERTQENIAQTIGKSXSHVANXMRLLXLPDEVQSYLVSGELTAXHARAIAAAADPVALAKQIIEGGLSVRETEALARKAPNLSAGKSKGGRPPRVKDTDTQALESDLSSVLGLDVSIDHRGSTGTLTITYATLEQLDDLCNRLTRGI

Variants of: B1
Assay: one-hybrid fitness for binding parS DNA (scaled: cognate 1, non-cognate 0); higher = stronger binding
Conditions: with parS DNA site
Outline: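 Selection: bacterial one-hybrid in E. coli USO, HIS3 reporter with the site 19 bp from the promoter, 48 hours at 37°C on M9-minus-histidine plus 0.1 mM IPTG and 5 mM 3-AT. Libraries were Caulobacter ParB with four randomised specificity codons, sequenced on Illumina before and after selection. Fitness is the rescaled log change in variant-to-wild-type read ratio, anchored to the cognate and non-cognate sites.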

Variant | one-hybrid fitness for binding parS DNA
RPNP | ≤ 0.2
GRSV | ≤ 0.2
IRCM | ≤ 0.2
ARNR | ≤ 0.2
TSLG | ≤ 0.2
VVFN | 0.254
FTLD | ≤ 0.2
NMYE | ≤ 0.2
VWQT | ≤ 0.2
MNHR | ≤ 0.2
KTQG | ≤ 0.2
KDAR | ≤ 0.2
GQPV | ≤ 0.2
TNAP | ≤ 0.2
QKSV | ≤ 0.2
MTTF | ≤ 0.2
GYAS | ≤ 0.2
STNE | ≤ 0.2
AERS | ≤ 0.2
YGSY | ≤ 0.2
KNQS | ≤ 0.2
KWEI | ≤ 0.2
RFFG | 0.776
RPTA | ≤ 0.2

Variant | one-hybrid fitness for binding parS DNA
HNYR | ≤ 0.2
PSKA | ≤ 0.2
TPFV | ≤ 0.2
NRSV | ≤ 0.2
PMPR | ≤ 0.2
SSMP | ≤ 0.2
WILR | ≤ 0.2
RTTG | 1
MLHT | ≤ 0.2
DEHS | ≤ 0.2
CSAC | ≤ 0.2
TMSD | ≤ 0.2
PGYG | ≤ 0.2
LPMI | ≤ 0.2
ADSR | ≤ 0.2
SDDM | ≤ 0.2
AGTN | ≤ 0.2
YEAS | ≤ 0.2
YKPK | ≤ 0.2
RLNE | ≤ 0.2
GICG | ≤ 0.2
PNEC | ≤ 0.2
CLPD | ≤ 0.2
LHDW | ≤ 0.2

Variant | one-hybrid fitness for binding parS DNA
TYPV | ≤ 0.2
TFHD | ≤ 0.2
QDTY | ≤ 0.2
CLIS | ≤ 0.2
TRIN | ≤ 0.2
PTAG | ≤ 0.2
TMWR | ≤ 0.2
RPVN | ≤ 0.2
PTFG | ≤ 0.2
IMLG | ≤ 0.2
LWPH | ≤ 0.2
DKCH | ≤ 0.2
EASL | ≤ 0.2
LPGD | ≤ 0.2
LHSK | ≤ 0.2
PLVL | ≤ 0.2
NAHR | ≤ 0.2
ELEF | ≤ 0.2
LKKA | ≤ 0.2
IHPM | ≤ 0.2
GIST | ≤ 0.2
CIMS | ≤ 0.2
VEMW | 0.21
AYTG | ≤ 0.2

Variant | one-hybrid fitness for binding parS DNA
GSAK | ≤ 0.2
EAPQ | ≤ 0.2
HTNP | ≤ 0.2
QIML | ≤ 0.2
SKYT | ≤ 0.2
MRLS | ≤ 0.2
PQAL | ≤ 0.2
TDWR | ≤ 0.2
LTWW | ≤ 0.2
VDSV | ≤ 0.2
RMDK | ≤ 0.2
WRVG | ≤ 0.2
KARC | ≤ 0.2
ETES | ≤ 0.2
QAVA | ≤ 0.2
QMTN | ≤ 0.2
VVKL | ≤ 0.2
TFEV | ≤ 0.2
TLQI | ≤ 0.2
KKTT | ≤ 0.2
CFEL | ≤ 0.2
VDSI | ≤ 0.2
TKGL | ≤ 0.2
RNQD | ≤ 0.2

Variant | one-hybrid fitness for binding parS DNA
KNTA | ≤ 0.2
RRYR | ≤ 0.2
AYWT | ≤ 0.2
RMLV | ≤ 0.2
SMIG | ≤ 0.2
IHNT | ≤ 0.2
SPHT | ≤ 0.2
RVWS | 1.05
KHYE | ≤ 0.2
SQWF | ≤ 0.2
AVYG | ≤ 0.2
ACSY | ≤ 0.2
IPCG | ≤ 0.2
PPYW | ≤ 0.2
AYLI | ≤ 0.2
RKNV | ≤ 0.2
DTRW | ≤ 0.2
KAKA | ≤ 0.2
YMRT | ≤ 0.2
KHRA | ≤ 0.2
QMEL | ≤ 0.2
SRAA | ≤ 0.2
DRPY | ≤ 0.2
DPHY | ≤ 0.2

Variant | one-hybrid fitness for binding parS DNA
VQRC | ≤ 0.2
ACYN | ≤ 0.2
DSLF | ≤ 0.2
RSCS | 0.995
GPDV | ≤ 0.2
PTRP | ≤ 0.2
DNYS | ≤ 0.2
MAQE | ≤ 0.2
EALI | ≤ 0.2
ECVT | ≤ 0.2
RELF | ≤ 0.2
DRLN | ≤ 0.2
LVGI | ≤ 0.2
PSCF | ≤ 0.2
QNQG | ≤ 0.2
KWKG | 0.238
KQHL | ≤ 0.2
RNFF | ≤ 0.2
MLHC | ≤ 0.2
YPKT | ≤ 0.2
DVTK | ≤ 0.2
PCRD | ≤ 0.2
HAAH | ≤ 0.2
CYKT | ≤ 0.2

Variant | one-hybrid fitness for binding parS DNA
NFTF | ≤ 0.2
IEPH | ≤ 0.2
CAEW | ≤ 0.2
PVCF | ≤ 0.2
GHLE | ≤ 0.2
PNAW | ≤ 0.2
MCPT | ≤ 0.2
NDPL | ≤ 0.2
YDKS | ≤ 0.2
GTCG | ≤ 0.2
QFCC | ≤ 0.2
DLPC | ≤ 0.2
GHRE | ≤ 0.2
GMQT | ≤ 0.2
RKRY | 0.422
IHDP | ≤ 0.2
LCGW | ≤ 0.2
ARLV | ≤ 0.2
ELVC | ≤ 0.2
STRI | ≤ 0.2
AMLT | ≤ 0.2
SAQV | ≤ 0.2
RFWA | 0.481
ARDL | ≤ 0.2

Variant | one-hybrid fitness for binding parS DNA
MAPG | ≤ 0.2
LQEN | ≤ 0.2
MTSK | ≤ 0.2
NNCK | ≤ 0.2
PVEG | ≤ 0.2
SVTI | ≤ 0.2
LLRR | ≤ 0.2
TGSF | ≤ 0.2
HSAD | ≤ 0.2
ILLW | ≤ 0.2
QNPA | ≤ 0.2
TYTR | ≤ 0.2
SHIA | ≤ 0.2
ERDT | ≤ 0.2
LHHF | ≤ 0.2
RVHE | ≤ 0.2
TYTD | ≤ 0.2
FNWS | ≤ 0.2
VRCV | ≤ 0.2
RCRD | ≤ 0.2
KETH | ≤ 0.2
DQTR | ≤ 0.2
GVTI | ≤ 0.2
VVPM | ≤ 0.2

Variant | one-hybrid fitness for binding parS DNA
CKNS | ≤ 0.2
MLEG | ≤ 0.2
RCGA | 0.653
KDLT | ≤ 0.2
VCNI | ≤ 0.2
RDTH | ≤ 0.2
PERT | ≤ 0.2
LHPK | ≤ 0.2
EARF | ≤ 0.2
LTQS | ≤ 0.2
KMIS | ≤ 0.2
RYTY | 0.429
GGFR | ≤ 0.2
DAAE | 0.204
PCDH | ≤ 0.2
MFWG | ≤ 0.2
RDPW | ≤ 0.2
EKNR | ≤ 0.2
CNAG | ≤ 0.2
QQRH | ≤ 0.2
DFPL | ≤ 0.2
QQKK | ≤ 0.2
TSTE | ≤ 0.2
LTWT | ≤ 0.2

Variant | one-hybrid fitness for binding parS DNA
HITA | ≤ 0.2
KVCT | ≤ 0.2
EANC | ≤ 0.2
LSGD | ≤ 0.2
QFLR | ≤ 0.2
ALDD | ≤ 0.2
GQRI | ≤ 0.2
TDHQ | ≤ 0.2
EVGR | ≤ 0.2
YYAL | ≤ 0.2
TVVF | ≤ 0.2
IDGT | ≤ 0.2
LTIQ | ≤ 0.2
MALI | ≤ 0.2
SHVW | ≤ 0.2
TLTC | ≤ 0.2
TTRT | ≤ 0.2
PMET | ≤ 0.2
DPKP | ≤ 0.2
LCDF | ≤ 0.2
SVKS | ≤ 0.2
VITS | ≤ 0.2
LTHL | ≤ 0.2
SSLT | ≤ 0.2

Variant | one-hybrid fitness for binding parS DNA
KHKR | ≤ 0.2
ERKI | ≤ 0.2
SCQT | ≤ 0.2
CCMT | ≤ 0.2
VIRA | ≤ 0.2
KCTR | ≤ 0.2
KINA | ≤ 0.2
GTSK | ≤ 0.2
STVS | ≤ 0.2
HRTI | ≤ 0.2
RRRQ | ≤ 0.2
THWG | ≤ 0.2
YHLA | ≤ 0.2
YHGR | ≤ 0.2
LADC | ≤ 0.2
PSNF | ≤ 0.2
QSWQ | ≤ 0.2
RSVW | ≤ 0.2
DRCY | ≤ 0.2
QART | ≤ 0.2
ADMT | ≤ 0.2
RYSQ | ≤ 0.2
SFPS | ≤ 0.2
YRRR | ≤ 0.2

Variant | one-hybrid fitness for binding parS DNA
WKRV | ≤ 0.2
HCRL | ≤ 0.2
TVGF | ≤ 0.2
ACKY | ≤ 0.2
GVRY | ≤ 0.2
HTLE | ≤ 0.2
DMSR | ≤ 0.2
SAFG | ≤ 0.2
EDNP | ≤ 0.2
AHYV | ≤ 0.2
SSRD | ≤ 0.2
AAIG | ≤ 0.2
LKLT | ≤ 0.2
RLIC | 0.938
EYSI | ≤ 0.2
DRWS | ≤ 0.2
PHTQ | ≤ 0.2
GKPT | ≤ 0.2
RMQE | ≤ 0.2
HTNR | ≤ 0.2
RLGY | 0.5
LVLD | ≤ 0.2
RANV | ≤ 0.2
VSKC | ≤ 0.2

Variant | one-hybrid fitness for binding parS DNA
VKTM | ≤ 0.2
GVTE | ≤ 0.2
KVSF | ≤ 0.2
LLHR | ≤ 0.2
TDPP | ≤ 0.2
DSTP | ≤ 0.2
VKLG | ≤ 0.2
CCHT | ≤ 0.2
TNQN | ≤ 0.2
TADC | ≤ 0.2
GTGC | ≤ 0.2
NDNG | ≤ 0.2
QRED | ≤ 0.2
KSHT | ≤ 0.2
VSGR | ≤ 0.2
PQET | ≤ 0.2
PGAA | ≤ 0.2
RNYM | ≤ 0.2
